Patent publication US20250296996A1, “ANGIOPOIETIN-RELATED PROTEIN 7-SPECIFIC ANTIBODIES AND USES THEREOF” (Broadwing Bio, Inc., priority 2022, published 2025)

Assays:
[1] = Differential scanning fluorimetry (Protein Thermal Shift assay), thermal stability; format: physicochemical; conditions: DSF, melt 25° C. to 95° C., triplicate; in °C (unit assumed)
Method: Human ANGPTL7 monoclonal antibody differential scanning fluorimetry (DSF). […] Among the many techniques used to study the stability of mAbs, differential scanning fluorimetry (DSF) offers both excellent throughput and minimal material consumption. DSF measures the temperature of the protein unfolding transition (Tm) based on the change in fluorescence intensity of an environmentally sensitive dye.
Experiments were conducted to assess the thermal stability of the human ANGPTL7 monoclonal antibodies (“ATX” antibodies) of the present disclosure by determining the melting temperature. Thermal stability was assessed via differential scanning fluorimetry (DSF) utilizing the Protein Thermal Shift (PTS) assay from Applied Biosystems. The assay was performed according to the manufacturer's instruction. Briefly, the antibody to be evaluated was prepared in triplicate by mixing with Protein Thermal Shift dye and buffer; a real-time melt experiment from 25° C. to 95° C. was run on QuantStudio 3. Data was analyzed by using Protein Thermal Shift Software and the melting temperature (Tm) was calculated from the melt curve (Table 1).

[2] = system: rabbit ANGPTL7 protein (P66, rabbit ANGPTL7-his); test: Octet HTX binding kinetics to P66 (rabbit ANGPTL7-his); conditions: P66 @ 200 nM
Method: (§1) Experiments were also conducted to determine the reactivity and dissociation constants (KA) of anti-ANGPTL7 antibodies with the rabbit ANGPTL7 protein. Binding experiments were performed on Octet HTX (ForteBio) in Rx PBS, pH 7.4, 0.1 mg/mi BSA, 0.05% Sodium Azide, and 0.02% Tween 20. Antibodies at a concentration of 50 nM were loaded on pre-hydrated AHC biosensors for 5 min. The loaded sensors were dipped into monovalent P66 (rabbit ANGPTL7-his) at a concentration of 200 nM for 5 min of association, followed by 10 min of dissociation. Results were analyzed with ForteBio Data Analysis 11.1 and fit to a 1:1 binding model to determine the monovalent KD. Responses (nm) at the end of association were also determined (Table 6).

[3] = target: T1, mouse ANGPTL7 protein (muANGPTL7-his, R&D Systems) (Mus musculus, UniProt Q8R1Q3); test: Octet HTX binding kinetics to muANGPTL7-his; conditions: monovalent KD, 1:1 model; muANGPTL7-his @ 200 nM
T1 construct: His; purchased R&D Systems
T1 sequence (Q8R1Q3 22-337): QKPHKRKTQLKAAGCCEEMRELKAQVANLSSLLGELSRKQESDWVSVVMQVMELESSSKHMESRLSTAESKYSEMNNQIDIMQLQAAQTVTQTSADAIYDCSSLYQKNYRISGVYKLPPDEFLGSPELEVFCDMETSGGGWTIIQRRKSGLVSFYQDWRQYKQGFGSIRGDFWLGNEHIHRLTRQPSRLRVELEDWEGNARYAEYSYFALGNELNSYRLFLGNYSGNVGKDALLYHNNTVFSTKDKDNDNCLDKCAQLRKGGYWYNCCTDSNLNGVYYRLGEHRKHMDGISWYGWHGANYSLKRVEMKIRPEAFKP
Method: as §1, with “(KD)” for “(KA)”, “mouse” for “rabbit”, “1×PBS,” for “Rx PBS,”, “[…].” for “min.”, “muANGPTL7-his (R&D Systems)” for “P66 (rabbit ANGPTL7-his)”, “5).” for “6).”

B1: ATX-P-435: human anti-ANGPTL7 monoclonal antibody; HCDR1-3 SEQ ID NOs 76, 80, 84; LCDR1-3 SEQ ID NOs 143, 153, 163 (antibody)
heavy: QLQLQESGPGLVKPSETLSLTCTVSGGSISSSSSYWGWIRQPPGKGLEWIGSIYYSGSTYSNPSLKSRVTISVDTSKNQFSLKLSSVTAADTAVYYCARQYISGTEYFQYWGQGTLVTVSSASTKGPSVFPLAPSSKSTSGGTAALGCLVKDYFPEPVTVSWNSGALTSGVHTFPAVLQSSGLYSLSSVVTVPSSSLGTQTYICNVNHKPSNTKVDKRV[in this place human IgG1 Fc with changes]
light: EIVLTQSPATLSLSPGERATLSCRASQSVSNYLAWYQQKPGQAPRLLIYDASNRATGIPARFSGSGSGTDFTLTISSLEPEDFAVYYCQQRSNWPSFGQGTRLEIKRTVAAPSVFIFPPSDEQLKSGTASVVCLLNNFYPREAKVQWKVDNALQSGNSQESVTEQDSKDSTYSLSSTLTLSKADYEKHKVYACEVTHQGLSSPVTKSFNRGEC
Tm 2 - Mean [1]: 78.38
Tm D - Mean [1]: 62.68
kdis(1/8) [2]: N.B.
KD (M) ([2]; monovalent KD, 1:1 model): N.B.
KD (M) [3]: N.B.

B2: ATX-P-423: human anti-ANGPTL7 monoclonal antibody; HCDR1-3 SEQ ID NOs 40, 56, 71; LCDR1-3 SEQ ID NOs 90, 102, 114 (antibody)
heavy: QVQLVESGGGVVQPGRSLRLSCAASGFTFSSYGMHWVRQAPGKGLEWVSHITYDGSDKYYGDSVKGRFTISRDNSKNTLYLQMNSLRAEDTAVYYCAKDGYSSGWWYFDYWGQGTLVTVSSASTKGPSVFPLAPSSKSTSGGTAALGCLVKDYFPEPVTVSWNSGALTSGVHTFPAVLQSSGLYSLSSVVTVPSSSLGTQTYICNVNHKPSNTKVDKRV[in this place human IgG1 Fc with changes]
light: DIQMTQSPSSLSASVGDRVTITCRASQGIRNDLGWYQQKPGKAPKRLIYAASSLQSGVPSRFSGSGSGTEFALTISSLQPEDFATYYCLQHNSYPLTFGGGTKLEIKRTVAAPSVFIFPPSDEQLKSGTASVVCLLNNFYPREAKVQWKVDNALQSGNSQESVTEQDSKDSTYSLSSTLTLSKADYEKHKVYACEVTHQGLSSPVTKSFNRGEC
Tm D - Mean [1]: 62.50
kdis(1/8) [2]: 5.54E−04 1/8
KD (M) [3]: N.B.
